No constants are given. Whether binding was seen depends on the method and setting. In cells and extracts the contact can be indirect. Some binding calls cover weakened binding; strength is not graded here.
Molecular target: T1, ARHGAP23 (mouse (endogenous in mouse keratinocytes)) (UniProt Q69ZH9)
T1 sequence: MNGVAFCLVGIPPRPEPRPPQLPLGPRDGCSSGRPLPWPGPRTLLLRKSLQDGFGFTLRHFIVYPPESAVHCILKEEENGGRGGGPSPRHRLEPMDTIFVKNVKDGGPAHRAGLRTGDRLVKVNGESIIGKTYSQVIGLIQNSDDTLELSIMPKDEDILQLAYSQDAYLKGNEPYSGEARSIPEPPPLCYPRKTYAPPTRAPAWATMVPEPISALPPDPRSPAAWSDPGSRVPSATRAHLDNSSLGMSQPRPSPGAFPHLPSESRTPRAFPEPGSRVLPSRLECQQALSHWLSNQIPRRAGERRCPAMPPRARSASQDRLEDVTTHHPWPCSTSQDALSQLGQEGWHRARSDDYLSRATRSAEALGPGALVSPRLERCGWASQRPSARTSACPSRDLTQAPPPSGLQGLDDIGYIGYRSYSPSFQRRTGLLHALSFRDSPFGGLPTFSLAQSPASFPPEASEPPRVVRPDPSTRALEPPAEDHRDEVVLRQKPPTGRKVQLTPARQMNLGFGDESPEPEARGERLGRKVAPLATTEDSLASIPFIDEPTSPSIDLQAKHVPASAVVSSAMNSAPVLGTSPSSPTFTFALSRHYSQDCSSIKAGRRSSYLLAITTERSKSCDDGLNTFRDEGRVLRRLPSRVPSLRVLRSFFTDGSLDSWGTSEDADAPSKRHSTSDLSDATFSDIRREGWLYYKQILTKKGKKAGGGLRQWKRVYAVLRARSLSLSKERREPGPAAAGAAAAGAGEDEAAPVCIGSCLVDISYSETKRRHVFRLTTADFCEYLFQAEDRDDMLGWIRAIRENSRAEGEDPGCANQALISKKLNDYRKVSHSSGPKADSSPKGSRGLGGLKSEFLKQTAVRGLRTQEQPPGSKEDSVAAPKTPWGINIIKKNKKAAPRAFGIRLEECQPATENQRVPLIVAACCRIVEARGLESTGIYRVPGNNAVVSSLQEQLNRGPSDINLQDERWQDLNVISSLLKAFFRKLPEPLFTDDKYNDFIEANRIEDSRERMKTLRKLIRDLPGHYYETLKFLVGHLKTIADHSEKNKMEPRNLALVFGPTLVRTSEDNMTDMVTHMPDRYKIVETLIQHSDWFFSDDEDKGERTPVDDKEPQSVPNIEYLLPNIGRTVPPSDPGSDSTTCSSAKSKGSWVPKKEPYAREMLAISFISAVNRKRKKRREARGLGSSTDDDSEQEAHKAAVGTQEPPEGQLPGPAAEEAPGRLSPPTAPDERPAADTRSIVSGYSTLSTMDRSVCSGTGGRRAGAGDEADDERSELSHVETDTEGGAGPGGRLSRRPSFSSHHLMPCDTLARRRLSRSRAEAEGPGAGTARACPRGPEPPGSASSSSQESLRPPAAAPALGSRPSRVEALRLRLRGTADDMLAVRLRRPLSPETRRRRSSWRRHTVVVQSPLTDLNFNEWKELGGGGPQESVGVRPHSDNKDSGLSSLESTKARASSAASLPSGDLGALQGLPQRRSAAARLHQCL
Test: co-IP; anti-ARHGAP23 antibody and Protein A agarose on lysates of WT and PKP4-KO keratinocytes kept 24 h in HCM; normal rabbit IgG as control; IP buffer with 1% NP-40, 137 mM NaCl; western blot

Sequences of proteins named here, by UniProt entry; tags and fusion partners are left off.
UniProt Q9QUI0: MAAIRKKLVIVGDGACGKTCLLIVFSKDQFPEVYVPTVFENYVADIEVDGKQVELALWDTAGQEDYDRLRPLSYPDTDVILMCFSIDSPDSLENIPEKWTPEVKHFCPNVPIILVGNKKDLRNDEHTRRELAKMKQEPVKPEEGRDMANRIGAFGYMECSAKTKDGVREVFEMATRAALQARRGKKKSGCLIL

RhoA (from UniProt Q9QUI0 1-193) was tested, and the binding was “binds”.
